Experimental data from patent US20230293439A1, “SPRAY DRYING OF SUPERSATURATED SOLUTIONS OF API WITH ACETIC ACID” (BEND RESEARCH, INC., priority 2020, published 2023).

Experiment: Metastability of the supersaturated nilotinib solution from the Solvent-Shift route (visual check for precipitation)
Settings: Example 3: 2.19 wt % nilotinib in 85.0:9.0:6.0 (w:w:w) methanol:acetic acid:PVP-VA64, 40° C.

## Cc1cn(-c2cc(NC(=O)c3ccc(C)c(Nc4nccc(-c5cccnc5)n4)c3)cc(C(F)(F)F)c2)cn1 [Nilotinib]
  Time the supersaturated solution remained visibly clear without any precipitation of solid: at least 2 h
